Where a chain is given by its changes, count along the chain named. The list shows a part of the results.
T1: RBFOX1 RRM RbFoxmut (Fox-RRM*) (Homo sapiens, UniProt Q9NWB1 109-208, R118D;E147R;N151S;E152T)
T1 sequence: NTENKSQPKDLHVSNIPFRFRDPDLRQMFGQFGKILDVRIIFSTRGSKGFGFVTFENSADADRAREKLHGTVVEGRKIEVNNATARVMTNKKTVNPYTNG

B1: GCUACCU (DNA:RNA)
RNA: GGGAGACCGGAAUUCAGAUUGUCCGCUACCUUUAAAUCCCGUCGUAGCCACCA
DNA 1: CAATCTGAATTCCGGTCTCCC
DNA 2: TGGTGGCTACGACGGGATT
B2: GGCAAGA (DNA:RNA)
RNA: B1 RNA with C26G, U27C, C29A, C30G, U31A
DNA 1: CAATCTGAATTCCGGTCTCCC
DNA 2: TGGTGGCTACGACGGGATT
B3: GGCCGCC (DNA:RNA)
RNA: B1 RNA with C26G, U27C, A28C, C29G, U31C
DNA 1: CAATCTGAATTCCGGTCTCCC
DNA 2: TGGTGGCTACGACGGGATT
B4: UCAACCG (DNA:RNA)
RNA: B1 RNA with G25U, U27A, U31G
DNA 1: CAATCTGAATTCCGGTCTCCC
DNA 2: TGGTGGCTACGACGGGATT
B5: GUUCGGC (DNA:RNA)
RNA: B1 RNA with C26U, A28C, C29G, C30G, U31C
DNA 1: CAATCTGAATTCCGGTCTCCC
DNA 2: TGGTGGCTACGACGGGATT
B6: GUAUGGG (DNA:RNA)
RNA: B1 RNA with C26U, U27A, A28U, C29G, C30G, U31G
DNA 1: CAATCTGAATTCCGGTCTCCC
DNA 2: TGGTGGCTACGACGGGATT
B7: UUUGCAA (DNA:RNA)
RNA: B1 RNA with G25U, C26U, A28G, C30A, U31A
DNA 1: CAATCTGAATTCCGGTCTCCC
DNA 2: TGGTGGCTACGACGGGATT
B8: UUGGAUA (DNA:RNA)
RNA: GGGAGACCGGAAUUCAGAUUGUCCUUGGAUAUUAAAUCCCGUCGUAGCCACCA
DNA 1: CAATCTGAATTCCGGTCTCCC
DNA 2: TGGTGGCTACGACGGGATT
B9: UCUCUGU (DNA:RNA)
RNA: B1 RNA with G25U, A28C, C29U, C30G
DNA 1: CAATCTGAATTCCGGTCTCCC
DNA 2: TGGTGGCTACGACGGGATT
B10: CAAGCAG (DNA:RNA)
RNA: B1 RNA with G25C, C26A, U27A, A28G, C30A, U31G
DNA 1: CAATCTGAATTCCGGTCTCCC
DNA 2: TGGTGGCTACGACGGGATT
B11: AGGAUGA (DNA:RNA)
RNA: B8 RNA with U25A, U26G, G28A, A29U, U30G
DNA 1: CAATCTGAATTCCGGTCTCCC
DNA 2: TGGTGGCTACGACGGGATT
B12: AAACGGA (DNA:RNA)
RNA: B8 RNA with U25A, U26A, G27A, G28C, A29G, U30G
DNA 1: CAATCTGAATTCCGGTCTCCC
DNA 2: TGGTGGCTACGACGGGATT
B13: ACGCCGC (DNA:RNA)
RNA: B1 RNA with G25A, U27G, A28C, C30G, U31C
DNA 1: CAATCTGAATTCCGGTCTCCC
DNA 2: TGGTGGCTACGACGGGATT
B14: UCCCUUC (DNA:RNA)
RNA: B8 RNA with U26C, G27C, G28C, A29U, A31C
DNA 1: CAATCTGAATTCCGGTCTCCC
DNA 2: TGGTGGCTACGACGGGATT
B15: GGGAUAG (DNA:RNA)
RNA: B1 RNA with C26G, U27G, C29U, C30A, U31G
DNA 1: CAATCTGAATTCCGGTCTCCC
DNA 2: TGGTGGCTACGACGGGATT
B16: CGAAUCU (DNA:RNA)
RNA: B1 RNA with G25C, C26G, U27A, C29U
DNA 1: CAATCTGAATTCCGGTCTCCC
DNA 2: TGGTGGCTACGACGGGATT
B17: UUUAAGU (DNA:RNA)
RNA: B1 RNA with G25U, C26U, C29A, C30G
DNA 1: CAATCTGAATTCCGGTCTCCC
DNA 2: TGGTGGCTACGACGGGATT
B18: ACCGUUG (DNA:RNA)
RNA: B8 RNA with U25A, U26C, G27C, A29U, A31G
DNA 1: CAATCTGAATTCCGGTCTCCC
DNA 2: TGGTGGCTACGACGGGATT
B19: ACUAAAU (DNA:RNA)
RNA: B1 RNA with G25A, C29A, C30A
DNA 1: CAATCTGAATTCCGGTCTCCC
DNA 2: TGGTGGCTACGACGGGATT
B20: UGCGCGC (DNA:RNA)
RNA: B8 RNA with U26G, G27C, A29C, U30G, A31C
DNA 1: CAATCTGAATTCCGGTCTCCC
DNA 2: TGGTGGCTACGACGGGATT
B21: AAGGCCU (DNA:RNA)
RNA: B1 RNA with G25A, C26A, U27G, A28G
DNA 1: CAATCTGAATTCCGGTCTCCC
DNA 2: TGGTGGCTACGACGGGATT
B22: CCAUGGA (DNA:RNA)
RNA: B1 RNA with G25C, U27A, A28U, C29G, C30G, U31A
DNA 1: CAATCTGAATTCCGGTCTCCC
DNA 2: TGGTGGCTACGACGGGATT
B23: UCCUUAG (DNA:RNA)
RNA: B1 RNA with G25U, U27C, A28U, C29U, C30A, U31G
DNA 1: CAATCTGAATTCCGGTCTCCC
DNA 2: TGGTGGCTACGACGGGATT
B24: UCACAGU (DNA:RNA)
RNA: B1 RNA with G25U, U27A, A28C, C29A, C30G
DNA 1: CAATCTGAATTCCGGTCTCCC
DNA 2: TGGTGGCTACGACGGGATT
B25: AUUACGU (DNA:RNA)
RNA: B1 RNA with G25A, C26U, C30G
DNA 1: CAATCTGAATTCCGGTCTCCC
DNA 2: TGGTGGCTACGACGGGATT
B26: UGAUAUA (DNA:RNA)
RNA: B8 RNA with U26G, G27A, G28U
DNA 1: CAATCTGAATTCCGGTCTCCC
DNA 2: TGGTGGCTACGACGGGATT
B27: CUUACAC (DNA:RNA)
RNA: B1 RNA with G25C, C26U, C30A, U31C
DNA 1: CAATCTGAATTCCGGTCTCCC
DNA 2: TGGTGGCTACGACGGGATT
B28: CGGGGAC (DNA:RNA)
RNA: B8 RNA with U25C, U26G, A29G, U30A, A31C
DNA 1: CAATCTGAATTCCGGTCTCCC
DNA 2: TGGTGGCTACGACGGGATT
B29: GCCAUGC (DNA:RNA)
RNA: B1 RNA with U27C, C29U, C30G, U31C
DNA 1: CAATCTGAATTCCGGTCTCCC
DNA 2: TGGTGGCTACGACGGGATT
B30: UUUUAAU (DNA:RNA)
RNA: B8 RNA with G27U, G28U, U30A, A31U
DNA 1: CAATCTGAATTCCGGTCTCCC
DNA 2: TGGTGGCTACGACGGGATT
B31: AGCAAGG (DNA:RNA)
RNA: B1 RNA with G25A, C26G, U27C, C29A, C30G, U31G
DNA 1: CAATCTGAATTCCGGTCTCCC
DNA 2: TGGTGGCTACGACGGGATT

The binders below were run against T1, RBFOX1 RRM RbFoxmut (Fox-RRM*) (assay: EMSA; HiTS-Eq, 1 nM pool, 10 min; buffer printed only for the single-RNA assays: 10 mM Tris pH 7.5, 150 mM NaCl, 3.4 mM EDTA, 0.001% NP-40, 30 C). Details: tags: His6 N-terminal (pET28a); label: 5' 32P.
Summary of the method: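 Purified RbFox RRM, wild type or mutant, was incubated for 10 min in 50 µL with 1 nM of a 5′-radiolabelled RNA pool carrying 7 randomized nucleotides, whose flanks were annealed to DNA oligonucleotides, over a series of increasing protein concentrations. Unbound RNA was resolved on 8% native PAGE, cut out, reverse-transcribed, barcoded by PCR and sequenced on an Illumina HiSeq 2500. Relative association constants were derived from changes in read counts for each RNA species versus the control reaction and normalised to the cognate motif.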

| Binder | binding signal |
| --- | --- |
| B1 | 0.0731 KA relative to UGCAUGU |
| B2 | 0.0528 KA relative to UGCAUGU |
| B3 | 0.0551 KA relative to UGCAUGU |
| B4 | 0.0927 KA relative to UGCAUGU |
| B5 | 0.121 KA relative to UGCAUGU |
| B6 | 0.118 KA relative to UGCAUGU |
| B7 | 0.0855 KA relative to UGCAUGU |
| B8 | 0.0952 KA relative to UGCAUGU |
| B9 | 0.0824 KA relative to UGCAUGU |
| B10 | 0.0856 KA relative to UGCAUGU |
| B11 | 0.176 KA relative to UGCAUGU |
| B12 | 0.0605 KA relative to UGCAUGU |
| B13 | 0.14 KA relative to UGCAUGU |
| B14 | 0.0903 KA relative to UGCAUGU |
| B15 | 0.157 KA relative to UGCAUGU |
| B16 | 0.193 KA relative to UGCAUGU |

| Binder | binding signal |
| --- | --- |
| B17 | 0.108 KA relative to UGCAUGU |
| B18 | 0.118 KA relative to UGCAUGU |
| B19 | 0.0808 KA relative to UGCAUGU |
| B20 | 0.108 KA relative to UGCAUGU |
| B21 | 0.0632 KA relative to UGCAUGU |
| B22 | 0.0873 KA relative to UGCAUGU |
| B23 | 0.102 KA relative to UGCAUGU |
| B24 | 0.061 KA relative to UGCAUGU |
| B25 | 0.127 KA relative to UGCAUGU |
| B26 | 0.0947 KA relative to UGCAUGU |
| B27 | 0.0928 KA relative to UGCAUGU |
| B28 | 0.0855 KA relative to UGCAUGU |
| B29 | 0.109 KA relative to UGCAUGU |
| B30 | 0.0771 KA relative to UGCAUGU |
| B31 | 0.0886 KA relative to UGCAUGU |

Reference: PMC9911399, “Two distinct binding modes provide the RNA-binding protein RbFox with extraordinary sequence specificity”
